The campaign covered roughly 110,000 compounds. About 230 (0.21%) showed an effect of 50% or more. The list shows a part of the results.
These compounds were tested against DPAP1 (Plasmodium falciparum, UniProt Q8IIJ9) (assay: primary screen, percent inhibition; read by cleavage of a fluorogenic dipeptide substrate; higher = more effect of the substance).
Design: species or system P. falciparum D10 trophozoite lysates; single well
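Note: 30 min substrate incubation versus DMSO and 10 µM JCP410 controls.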

DPAP1, sequence (Q8IIJ9 whole entry, looked up): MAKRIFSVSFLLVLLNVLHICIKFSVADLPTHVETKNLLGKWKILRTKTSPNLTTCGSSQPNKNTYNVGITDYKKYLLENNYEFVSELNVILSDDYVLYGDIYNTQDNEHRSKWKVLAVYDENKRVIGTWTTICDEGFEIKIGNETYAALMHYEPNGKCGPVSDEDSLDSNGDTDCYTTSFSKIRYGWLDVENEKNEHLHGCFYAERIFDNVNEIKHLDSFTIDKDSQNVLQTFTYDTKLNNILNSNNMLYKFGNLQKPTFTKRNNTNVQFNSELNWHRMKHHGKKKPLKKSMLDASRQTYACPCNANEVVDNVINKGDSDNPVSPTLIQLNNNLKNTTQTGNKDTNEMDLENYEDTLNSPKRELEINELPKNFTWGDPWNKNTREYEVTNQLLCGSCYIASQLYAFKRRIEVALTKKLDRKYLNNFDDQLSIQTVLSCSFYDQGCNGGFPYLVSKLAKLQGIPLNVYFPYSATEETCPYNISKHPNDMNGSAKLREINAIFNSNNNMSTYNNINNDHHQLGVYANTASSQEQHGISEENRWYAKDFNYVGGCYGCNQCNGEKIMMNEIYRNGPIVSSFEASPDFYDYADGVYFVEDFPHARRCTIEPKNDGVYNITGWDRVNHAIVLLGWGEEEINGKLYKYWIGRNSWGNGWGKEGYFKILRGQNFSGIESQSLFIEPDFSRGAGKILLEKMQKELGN

SMILES	% Inhibition @ 10 uM
Cc1oc(-c2ccc(C(=O)NCC3CCCO3)cc2)nc1COc1ccccc1 (stereo not drawn)	-1.83%
O=C(CC(C(=O)O)c1ccccc1)Nc1cccc2ccccc12 (stereo not drawn)	0.83%
CCCCC(=O)Nc1ccc(NCc2ccc(C)s2)cc1	-0.759%
NC(=O)C1CCN(C(=O)CCn2c(=O)c3cccn3c3cccnc32)CC1	2.06%
CCN1CCN(Cc2ccccc2Br)CC1	0.605%
CC(CCc1ccco1)NC(=O)C1CCN(c2ncnc3c2nc2n3CCCCC2)CC1 (stereo not drawn)	-5.03%
C1=CC2CC1CC2CN1CCOCC1 (stereo not drawn)	2.7%
Cc1ccc(C)n1-c1nnc(N2CCCC(C(=O)NCCC(C)C)C2)s1 (stereo not drawn)	-0.637%
CC(=O)Nc1ccc(C(=O)N(c2ccccc2)c2ccc3ccccc3c2)cc1	-0.988%
COc1ccc(-c2nc3s/c(=C\c4cccc5ccccc45)c(=O)n3n2)cc1OC	-2.98%
CCCCOC(=O)c1nc2nc(C)cc(C)n2n1	1.87%
COc1ccc(C2CC(O)=C/C(=N/CCC(C)C)C2)cc1 (stereo not drawn)	2.38%
CC(C)C/N=C1\CC(C)(C)CC(O)=C1C(=S)Nc1ccccc1	3.46%
Cc1sc(-n2cccc2)c(C#N)c1C	3.3%
CCN1CCN(Cc2cc(OC)ccc2O)CC1	-1.78%
Cc1ccc(C#N)c(SCc2cccc(Br)c2)n1	0.726%
O=C(CN1CCN(Cc2ccccc2)C1=O)NCCCN1CCOCC1	-0.704%
Cc1ccc2nc(/N=C(\N)NC(=O)Cc3ccc(Cl)cc3)nc(C)c2c1	5.55%
Cc1ccc(OCC(O)CN2CCCCC2)cc1C (stereo not drawn)	3.47%
COc1cccc(OC)c1C(=O)N1CCN(C(=O)c2ccccc2)CC1	-2.87%
COc1ccc(NC(=O)c2c(-c3ccccc3Cl)noc2C)c(OC)c1	0.35%
CCCn1c2ccccc2c2cnn(CC(=O)NCCc3c[nH]c4ccccc34)c(=O)c21	-0.968%

SMILES	% Inhibition @ 10 uM
CCC(NC(=O)c1c(Cl)cnn1C)c1ccc(C(C)C)cc1 (stereo not drawn)	2.32%
C/N=c1\c(NC(=O)CCc2ccccc2)c(O)oc2ccccc12	2.5%
C#CCNC(=O)NC(=O)c1sc2ccccc2c1Cl	-2.36%
COc1cc(/C=N/n2cnnc2S)ccc1O	38.6%
Cc1cc2ncn(CCOc3ccccc3)c2cc1C	-4.07%
COc1ccc(CN2C(=O)NC(=O)/C(=C\c3ccc4c(c3)OCO4)C2=O)cc1	-4.93%
CCOC(=O)C1=C(C)OC(N)=C(C#N)C1c1ccccc1[N+](=O)[O-] (stereo not drawn)	6.4%
Cc1c2c(cc3c1oc(=O)c1ccccc13)CN(Cc1ccco1)CO2	-4.39%
COc1cccc(-n2c(C)cc(/C=C3\C(=N)N4N=C(S(=O)(=O)CC(C)C)SC4=NC3=O)c2C)c1	-1.54%
Cc1ccc(CNC(=O)CSc2nc3ncccc3o2)cc1	-8.36%
Cc1ccc(C(=O)Nc2c(C)nc3ncnn3c2O)cc1	1.86%
Cc1nn(C(C)C(=O)NCc2ccccc2)c(=O)c2cc3sccc3n12 (stereo not drawn)	-3.35%
CC(Oc1ccccc1)C(=O)Nc1ccc(Cl)c(Cl)c1 (stereo not drawn)	0.843%
CC(C)(NC(=O)[C@H](CS(=O)(=O)Cc1ccccc1OC(F)F)NC(=O)N1CCOCC1)C(=O)c1nnc(-c2cccnc2)o1	-1.82%
O=C1N(c2cccc(C(F)(F)F)c2)C2CS(=O)(=O)CC2N1c1ccc(Cl)c(Cl)c1 (stereo not drawn)	3.91%
CCOc1cccc(Oc2cccc(N)n2)c1	5.84%
Cc1oc2ccc(O)c(CN3CCOCC3)c2c1C(=O)NC1CCCC1	0.486%
COc1ccc(S(=O)(=O)N(C)CC(=O)N(Cc2ccccc2)Cc2ccccc2)cc1OC	-2.5%
COc1ccc2c(CNCc3ccc4c(c3)OCO4)c(C(=O)O)n(Cc3ccc(F)cc3)c2c1	-2.1%
CC(Cc1ccccc1S(=O)c1ccccc1)N(C)C (stereo not drawn)	4.3%
CCN(CC)S(=O)(=O)c1ccc(NC(=O)c2cccs2)cc1	-2.68%
O=C1c2ccccc2C(=O)N1CCNCCN1C(=O)c2ccccc2C1=O	10.7%

SMILES	% Inhibition @ 10 uM
COC(=O)/C=c1\sc2nc(N)nn2c1=O	-2.14%
COc1ccccc1CNC(=O)c1c2c(nn1C)-c1ccccc1SC2	8.62%
CCCCC(=O)N1c2ccccc2C(Nc2ccccc2)CC1C (stereo not drawn)	4.08%
O=C(Nc1cccc(O)c1)c1cccc(S(=O)(=O)N2CCOCC2)c1	4.82%
Cc1ccsc1C(=O)N1CC(C)CC(C)C1 (stereo not drawn)	0.727%
Cc1ccc(C(=O)Nc2cccc(C(=O)O)c2C)cc1C	0.83%
Cc1onc(-c2ccccc2)c1C(=O)N1CCOCC1	0.00784%
COc1ccc(C2C(C(=O)c3ccccc3)=C(O)C(=O)N2CO)cc1 (stereo not drawn)	-3.49%
CCOC(=O)C(/C=N/c1ccc(Cl)cn1)=C(/O)OCC	0.0719%
CN1CCC(NCCc2ccc(Cl)cc2)CC1	3.18%
Cc1ccccc1Cn1cc(CCCC(=O)NCc2cccnc2)c2ccccc21	0.244%
Cc1ccc(NC(=O)c2[nH]cnc2C(=O)Nc2ccc(C)cc2C)cc1	1.78%
COc1ccc(CNC(=O)C2CCN(S(=O)(=O)c3ccc(-n4cnnn4)cc3)CC2)cc1	3.88%
c1ccc(CCN2CCC(N3CCCC3)CC2)cc1	4.54%
O=C(O)c1ccc2c(c1)C(=O)N(c1nccs1)C2=O	-1.74%
CCOc1ccccc1CNc1nc2nc(C)c(Cc3ccccc3)c(O)n2n1	-9.95%
COc1ccc(OC)c(S(=O)(=O)NCc2ccc(C)cc2)c1	3.89%
O=C(C1=C(O)C(=O)N(Cc2ccco2)C1c1cccs1)c1ccc(F)cc1 (stereo not drawn)	-5.83%
CC1CN(C(=O)c2ccc3c(c2)OCO3)OC(c2cccnc2)O1 (stereo not drawn)	0.121%
COc1ccc(C(=O)Nc2ccc(NC(=O)c3cccc(C)c3)cc2)cc1	1.89%
COc1cccc2c1cc1c(=O)n(CC(=O)N3CCC(Cc4ccccc4)CC3)nc(C)n12	3.29%
CCn1nc(/C=C\c2ccccc2)nc2c(=O)n(C)c(=O)nc1-2	-1.11%

Source: PMC6919601, “Identification of Plasmodium dipeptidyl aminopeptidase allosteric inhibitors by high throughput screening” (PLoS ONE, 2019)
